# Several values for one entry are separate records, joined by “and”; a condition that tells them apart may be missing. Equal entries are not always repeated. Structures can show the parent of a compound that is named as a salt. This is one part of the list. Single values are uncertain, as repeats are few or missing.
# Tested on: HeLa VPS33A KO + NLuc-VPS33A R498W
# Assay: relative mutant VPS33A R498W amount (NanoLuc luminescence) vs DMSO (fraction of DMSO); HeLa model of a glycosaminoglycan (GAG) storage disease; KI is knock-in and KO knock-out; SDC1 is syndecan 1; higher = higher mutant VPS33A level
# Details: 50 µM; 24 h
# 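Also: screen of an FDA-approved drug library, NanoLuc luminescence read after lysing the treated cells, taken as a measure of mutant VPS33A protein stability.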
row,SMILES,relative mutant VPS33A R498W amount
1,CN[C@@H]1[C@H](O)[C@H](NC)[C@H]2O[C@@]3(O)C(=O)C[C@@H](C)O[C@H]3O[C@@H]2[C@H]1O [Spectinomycin (hydrochloride hydrate)],1.35
2,Cc1c(Nc2ncccc2C(=O)O)cccc1C(F)(F)F [Flunixin Meglumin],1.3
3,N#C[C@@H]1CCCN1C(=O)CNC12CC3CC(CC(O)(C3)C1)C2 [Vildagliptin (LAF-237)],0.854
4,Nc1c(CC(=O)O)cccc1C(=O)c1ccc(Br)cc1 [Bromfenac Sodium],1.14
5,N#C/C(=C1/SC[C@@H](c2ccc(Cl)cc2Cl)S1)n1ccnc1 [Luliconazole],0.567
6,NC[C@@H]1O[C@H](O[C@H]2[C@@H](O)[C@H](O[C@@H]3[C@@H](O)[C@H](N)C[C@H](N)[C@H]3O[C@H]3O[C@H](CN)[C@@H](O)[C@H](O)[C@H]3N)O[C@@H]2CO)[C@H](N)[C@@H](O)[C@@H]1O [Neomycin sulfate],0.868
7,CC(C)(O/N=C(\C(=O)N[C@@H]1C(=O)N2C(C(=O)[O-])=C(C[n+]3ccccc3)CS[C@H]12)c1csc(N)n1)C(=O)O [Ceftazidime],1.87 and 1.67
8,Clc1ccc(C(Cn2ccnc2)OCc2ccsc2Cl)c(Cl)c1 (stereo unspecified) [Tioconazole],0.864
9,CC(C)(C)C(=O)Oc1ccc(S(=O)(=O)Nc2ccccc2C(=O)NCC(=O)O)cc1 [Sivelestat (ONO-5046)],1.31
10,CCOC(=O)[C@H](CCc1ccccc1)N[C@@H](C)C(=O)N1[C@H](C(=O)O)C[C@@H]2CCC[C@@H]21 [Ramipril],1.34
11,CC(O)c1cc(C(=O)N[C@@H](C)Cn2ccc(-c3ccc(C#N)c(Cl)c3)n2)n[nH]1 (stereo partly specified),0.46
12,CCN(CC)CCOCCOC(=O)C(CC)(CC)c1ccccc1 [Oxeladin Citrate],0.742
13,CC(=O)CCCCn1c(=O)c2c(ncn2C)n(C)c1=O [Pentoxifylline],1.14
14,COc1ccccc1O [Guaiacol],1.22
15,CC(C(=O)O)c1ccc2c(c1)[nH]c1ccc(Cl)cc12 (stereo unspecified) [Carprofen],0.985
16,O=C[C@H](O)[C@@H](O)[C@H](O)CO [Xylose],1.48

row,SMILES,relative mutant VPS33A R498W amount
1,CC(C)[C@@H]1CC[C@@H](C)C[C@H]1O [L-Menthol],1.06
2,CCCCC(F)(F)[C@@]1(O)CC[C@H]2[C@@H](CC(=O)[C@@H]2CCCCCCC(=O)O)O1 [Lubiprostone],1.39
3,CN(C)CCC(c1ccccc1)c1ccccn1 (stereo unspecified) [Pheniramine Maleate],1.26
4,Cc1c(OCC(F)(F)F)ccnc1C[S+]([O-])c1nc2ccccc2[nH]1 (stereo unspecified) [Lansoprazole],0.844
5,CCC(=O)O[C@]1(C(=O)CCl)[C@@H](C)C[C@H]2[C@@H]3CCC4=CC(=O)C=C[C@]4(C)[C@@]3(F)[C@@H](O)C[C@@]21C [Clobetasol propionate],0.444
6,CC(N)C12CC3CC(CC(C3)C1)C2 (stereo unspecified) [Rimantadine Hydrochloride],0.996
7,NNc1nncc2ccccc12 [Hydralazine HCl],1.07
8,CNC(=O)c1ccc(N2C(=S)N(c3cnc(C#N)c(C(F)(F)F)c3)C(=O)C23CCC3)cc1F,0.773
9,COc1cc(Nc2nc3ccccc3nc2NS(=O)(=O)c2ccc(NC(=O)c3ccc(C)c(OC)c3)cc2)cc(OC)c1,1.16
10,Cc1onc(-c2ccccc2Cl)c1C(=O)N[C@@H]1C(=O)N2[C@@H]1SC(C)(C)[C@@H]2C(=O)O [Cloxacillin Sodium],1.96
11,O=C1C(CC[S+]([O-])c2ccccc2)C(=O)N(c2ccccc2)N1c1ccccc1 (racemic) [(+/-)-Sulfinpyrazone],0.97
12,Cc1c(S(=O)(=O)O)oc2c1C(=O)C(=O)c1c-2ccc2c1CCCC2(C)C [Tanshinone IIA---sulfonic sodium],1.09
13,COc1cccc(OC)c1C(=O)N[C@@H]1C(=O)N2[C@@H]1SC(C)(C)[C@@H]2C(=O)O [Methicillin (sodium salt)],1.24
14,OCCOCCN1CCN(C2=Nc3ccccc3Sc3ccccc32)CC1 [Quetiapine Fumarate],0.224
15,CC(C(=O)O)c1ccc(C(=O)c2cccs2)cc1 (stereo unspecified) [Suprofen],1.46

# Source: the supplement of paper PMC12355420
